# Data taken from the supplement of paper PMC8728848.
# Some of the results follow.
# B1: EULS2 M4 (Oryza sativa) (protein)
# chain: MVYCRANPNYAMTARNGAVVLAPANPKDEYQHWIKDMRWSTSIKDEEGYPAFALVNKATGQAIKHSLGQSHPVRLVPYNPEVMDESVLWTESRDVGNGFRCIRMVNNIYLNFDAFHGDKYHGGVRDGTDIVLWKWCEGDSLRWKIQPYYILEQKLISEEDLNSAVDHHHHHH
# Legend:
# Test in all cases: glycan array binding signal (z-score within array); higher = stronger binding
# Conditions in all cases: glycan notation: IUPAC condensed, linker removed
# [1] = target: Gal(a1-3)Gal(b1-4)GlcNAc(b1-2)Man
# Method in brief: (§1)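 Glycan array data were curated from 3228 arrays in the Consortium for Functional Glycomics database and kept only where the protein sequence was available. Glycan names were converted to IUPAC-condensed notation, and columns mapping to the same glycan were averaged. The binding signal is a within-array Z-score, averaged across arrays of the same protein sequence at different concentrations or buffers and across linkers. Negative Z-scores can be read as non-binding.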
# [2] = target: Gal(a1-3)Gal(b1-4)GlcNAc(b1-2)Man(a1-3)[Gal(a1-3)Gal(b1-4)GlcNAc(b1-2)Man(a1-6)]Man(b1-4)GlcNAc(b1-4)GlcNAc
# Method in brief: as §1
# [3] = target: Gal(a1-3)Gal(b1-4)GlcNAc(b1-3)GalNAc
# Method in brief: as §1
# [4] = target: Gal(a1-3)Gal(b1-4)GlcNAc(b1-6)GalNAc
# Method in brief: as §1
# [5] = target: Gal(a1-3)Gal(b1-4)[Fuc(a1-3)]GlcNAc
# Method in brief: as §1
# [6] = target: Gal(a1-3)Gal(b1-4)[Fuc(a1-3)]GlcNAc(b1-2)Man(a1-3)[Gal(a1-3)Gal(b1-4)[Fuc(a1-3)]GlcNAc(b1-2)Man(a1-6)]Man(b1-4)GlcNAc(b1-4)GlcNAc
# Method in brief: as §1
# Gal(a1-3)GalNAc = target: Gal(a1-3)GalNAc
# Method in brief: as §1
# [7] = target: Gal(a1-3)[Gal(a1-4)]Gal(b1-4)GlcNAc
# Method in brief: as §1
# [8] = target: Gal(a1-4)Gal(b1-3)GlcNAc(b1-2)Man(a1-3)[Gal(a1-4)Gal(b1-3)GlcNAc(b1-2)Man(a1-6)]Man(b1-4)GlcNAc(b1-4)GlcNAc
# Method in brief: as §1
# Gal(a1-4)Gal(b1-4)Glc = target: Gal(a1-4)Gal(b1-4)Glc
# Method in brief: as §1
# Gal(a1-4)Gal(b1-4)GlcNAc = target: Gal(a1-4)Gal(b1-4)GlcNAc
# Method in brief: as §1
# [9] = target: Gal(a1-4)Gal(b1-4)GlcNAc(b1-2)Man(a1-3)[Gal(a1-4)Gal(b1-4)GlcNAc(b1-2)Man(a1-6)]Man(b1-4)GlcNAc(b1-4)GlcNAc
# Method in brief: as §1
# [10] = target: Gal(a1-4)Gal(b1-4)GlcNAc(b1-3)Gal(b1-4)Glc
# Method in brief: as §1
# Gal(a1-4)GlcNAc = target: Gal(a1-4)GlcNAc
# Method in brief: as §1
# Gal(a1-6)Glc = target: Gal(a1-6)Glc
# Method in brief: as §1
# Gal(b1-2)Gal = target: Gal(b1-2)Gal
# Method in brief: as §1
# Gal(b1-3)Gal = target: Gal(b1-3)Gal
# Method in brief: as §1
# Gal(b1-3)Gal(b1-4)GlcNAc = target: Gal(b1-3)Gal(b1-4)GlcNAc
# Method in brief: as §1
# Gal(b1-3)GalNAc = target: Gal(b1-3)GalNAc
# Method in brief: as §1
# [11] = target: Gal(b1-3)GalNAc(a1-3)[Fuc(a1-2)]Gal(b1-4)Glc
# Method in brief: as §1
# [12] = target: Gal(b1-3)GalNAc(a1-3)[Fuc(a1-2)]Gal(b1-4)GlcNAc
# Method in brief: as §1
# Gal(b1-3)GalNAc(b1-3)Gal = target: Gal(b1-3)GalNAc(b1-3)Gal
# Method in brief: as §1
# [13] = target: Gal(b1-3)GalNAc(b1-3)Gal(a1-4)Gal(b1-4)Glc
# Method in brief: as §1
# [14] = target: Gal(b1-3)GalNAc(b1-4)Gal(b1-4)Glc
# Method in brief: as §1
# [15] = target: Gal(b1-3)GalNAc(b1-4)[Neu5Ac(a2-3)]Gal(b1-4)Glc
# Method in brief: as §1
# Gal(b1-3)GlcNAc = target: Gal(b1-3)GlcNAc
# Method in brief: as §1
# [16] = target: Gal(b1-3)GlcNAc(a1-3)Gal(b1-4)GlcNAc
# Method in brief: as §1
# [17] = target: Gal(b1-3)GlcNAc(a1-6)Gal(b1-4)GlcNAc
# Method in brief: as §1
# Gal(b1-3)GlcNAc(b1-2)Man = target: Gal(b1-3)GlcNAc(b1-2)Man
# Method in brief: as §1
# [18] = target: Gal(b1-3)GlcNAc(b1-2)Man(a1-3)[Gal(b1-3)GlcNAc(b1-2)Man(a1-6)]Man(b1-4)GlcNAc(b1-4)GlcNAc
# Method in brief: as §1
# [19] = target: Gal(b1-3)GlcNAc(b1-2)Man(a1-3)[Gal(b1-3)GlcNAc(b1-2)Man(a1-6)]Man(b1-4)GlcNAc(b1-4)[Fuc(a1-6)]GlcNAc
# Method in brief: as §1
# [20] = target: Gal(b1-3)GlcNAc(b1-2)Man(a1-3)[GlcNAc(b1-4)][Gal(b1-3)GlcNAc(b1-2)Man(a1-6)]Man(b1-4)GlcNAc(b1-4)GlcNAc
# Method in brief: as §1
# [21] = target: Gal(b1-3)GlcNAc(b1-2)[Gal(b1-3)GlcNAc(b1-6)]Man(a1-6)[Gal(b1-3)GlcNAc(b1-2)Man(a1-3)]Man(b1-4)GlcNAc(b1-4)GlcNAc
# Method in brief: as §1
# [22] = target: Gal(b1-3)GlcNAc(b1-3)Gal(b1-3)GlcNAc
# Method in brief: as §1
# [23] = target: Gal(b1-3)GlcNAc(b1-3)Gal(b1-4)Glc
# Method in brief: as §1
# [24] = target: Gal(b1-3)GlcNAc(b1-3)Gal(b1-4)GlcNAc
# Method in brief: as §1
# [25] = target: Gal(b1-3)GlcNAc(b1-3)Gal(b1-4)GlcNAc(b1-2)Man(a1-3)[Gal(b1-3)GlcNAc(b1-3)Gal(b1-4)GlcNAc(b1-2)Man(a1-6)]Man(b1-4)GlcNAc(b1-4)GlcNAc
# Method in brief: as §1
# [26] = target: Gal(b1-3)GlcNAc(b1-3)Gal(b1-4)GlcNAc(b1-2)[Gal(b1-3)GlcNAc(b1-3)Gal(b1-4)GlcNAc(b1-6)]Man(a1-6)[Gal(b1-3)GlcNAc(b1-3)Gal(b1-4)GlcNAc(b1-2)Man(a1-3)]Man(b1-4)GlcNAc(b1-4)[Fuc(a1-6)]GlcNAc
# Method in brief: as §1
# [27] = target: Gal(b1-3)GlcNAc(b1-3)Gal(b1-4)GlcNAc(b1-3)Gal(b1-4)GlcNAc(b1-2)[Gal(b1-3)GlcNAc(b1-3)Gal(b1-4)GlcNAc(b1-3)Gal(b1-4)GlcNAc(b1-6)]Man(a1-6)[Gal(b1-3)GlcNAc(b1-3)Gal(b1-4)GlcNAc(b1-3)Gal(b1-4)GlcNAc(b1-2)Man(a1-3)]Man(b1-4)GlcNAc(b1-4)[Fuc(a1-6)]GlcNAc
# Method in brief: as §1
# [28] = target: Gal(b1-3)GlcNAc(b1-3)Gal(b1-4)GlcNAc(b1-6)[Gal(b1-3)GlcNAc(b1-3)]Gal(b1-4)Glc
# Method in brief: as §1
# [29] = target: Gal(b1-3)GlcNAc(b1-3)Gal(b1-4)[Fuc(a1-3)]GlcNAc
# Method in brief: as §1
# [30] = target: Gal(b1-3)GlcNAc(b1-3)Gal(b1-4)[Fuc(a1-3)]GlcNAc(b1-6)[Gal(b1-3)GlcNAc(b1-3)]Gal(b1-4)Glc
# Method in brief: as §1
# [31] = target: Gal(b1-3)GlcNAc(b1-3)GalNAc
# Method in brief: as §1
# [32] = target: Gal(b1-3)GlcNAc(b1-6)Gal(b1-4)GlcNAc
# Method in brief: as §1
# [33] = target: Gal(b1-3)GlcNAc(b1-6)GalNAc
# Method in brief: as §1
binder,measurement,setting,value
B1,glycan array binding signal (z-score),[1],-0.464
same,glycan array binding signal (z-score),[2],-0.327
same,glycan array binding signal (z-score),[3],-0.395
same,glycan array binding signal (z-score),[4],0.31
same,glycan array binding signal (z-score),[5],0.531
same,glycan array binding signal (z-score),[6],-0.609
same,glycan array binding signal (z-score),Gal(a1-3)GalNAc,0.366
same,glycan array binding signal (z-score),[7],7
same,glycan array binding signal (z-score),[8],-0.321
same,glycan array binding signal (z-score),Gal(a1-4)Gal(b1-4)Glc,-0.542
same,glycan array binding signal (z-score),Gal(a1-4)Gal(b1-4)GlcNAc,-0.352
same,glycan array binding signal (z-score),[9],0.456
same,glycan array binding signal (z-score),[10],-0.452
same,glycan array binding signal (z-score),Gal(a1-4)GlcNAc,-0.293
same,glycan array binding signal (z-score),Gal(a1-6)Glc,0.151
same,glycan array binding signal (z-score),Gal(b1-2)Gal,1.56
same,glycan array binding signal (z-score),Gal(b1-3)Gal,-0.452
same,glycan array binding signal (z-score),Gal(b1-3)Gal(b1-4)GlcNAc,-0.554
same,glycan array binding signal (z-score),Gal(b1-3)GalNAc,-0.7
same,glycan array binding signal (z-score),[11],-0.225
same,glycan array binding signal (z-score),[12],-0.49
same,glycan array binding signal (z-score),Gal(b1-3)GalNAc(b1-3)Gal,-0.661
same,glycan array binding signal (z-score),[13],-0.214
same,glycan array binding signal (z-score),[14],-0.428
same,glycan array binding signal (z-score),[15],-0.574
same,glycan array binding signal (z-score),Gal(b1-3)GlcNAc,-0.319
same,glycan array binding signal (z-score),[16],-0.21
same,glycan array binding signal (z-score),[17],-0.357
same,glycan array binding signal (z-score),Gal(b1-3)GlcNAc(b1-2)Man,-0.517
same,glycan array binding signal (z-score),[18],-0.259
same,glycan array binding signal (z-score),[19],-0.366
same,glycan array binding signal (z-score),[20],4.91
same,glycan array binding signal (z-score),[21],0.796
same,glycan array binding signal (z-score),[22],-0.473
same,glycan array binding signal (z-score),[23],-0.491
same,glycan array binding signal (z-score),[24],-0.058
same,glycan array binding signal (z-score),[25],0.233
same,glycan array binding signal (z-score),[26],-0.445
same,glycan array binding signal (z-score),[27],-0.088
same,glycan array binding signal (z-score),[28],-0.04
same,glycan array binding signal (z-score),[29],1.53
same,glycan array binding signal (z-score),[30],-0.657
same,glycan array binding signal (z-score),[31],-0.474
same,glycan array binding signal (z-score),[32],2.36
same,glycan array binding signal (z-score),[33],-0.558
